# Experimental data published in PubChem BioAssay AID1345082 (National Center for Advancing Translational Sciences (NCATS), 2018).
# Among all 94,000 compounds or so, about 4,000 (4.3%) were called active. Inconclusive means that the source gave no clear call. Such entries were picked first, then a sample of the others. Calls come from the whole dose curve; as a rule, active = well fitted inhibition curve with a large enough effect; inconclusive = small, poorly fitted or top-dose-only effect; inactive = no such curve, though single readings can be large or run the other way. Potencies beside an inconclusive call are fits to weak or partial responses and may not hold up.
# Test: Cytotoxic Profiling in NIH 3T3 Cell Line of Diverse Libraries Using Quantitative High-Throughput Screening; note: nearly all actives have a fitted effect of over 55% in size
# Details: NIH 3T3 viability, CellTiter-Glo ATP luminescence, 48-72 h; series mostly up to 96.7 µM
# Procedure, shortened: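 Cytotoxicity is measured as loss of cellular ATP: NIH 3T3 cells (400/well) are exposed to compound for 48 or 72 hr at 37 °C, then CellTiter-Glo luminescence is imaged after 10 min at room temperature.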
# Potency is the fitted concentration of half-maximal effect; tags give direction and shape of the fitted curve.
row,SMILES,Potency
1,COc1ccc(C(=O)NC2CCN(c3cnn(CC4CC4)c(=O)c3)CC2)cc1,inactive
2,CC(C)N1CC(C(=O)N2CCN(c3ncccn3)CC2)NC1=O (centres undefined),inactive
3,CNC(=O)[C@H]1CN(C(=O)CO)[C@]2(C)C(=O)N(CC3CC3)c3ccccc3[C@H]12,"inconclusive: 39.8 µM [inhibitor, single point]"
4,COC(=O)[C@@H]1Cc2ncn(Cc3ccc(OC)cc3)c2CN1Cc1ccc(OC)cc1,"inconclusive: 89.1 µM [inhibitor, partial curve, poor fit]"
5,COC(=O)CNC(=O)N1CCC(N2C(=O)C(OCC3CC3)C23CCCCC3)CC1 (centres undefined),inactive
6,C[S+](=O)([O-])N1CC2(Cc3ccccc31)CN(C(=O)c1cccc(Cl)c1)C2,"inconclusive: 50.1 µM [inhibitor, partial curve, poor fit]"
7,O=C1NCc2ccccc2CC12CCCN2Cc1cccc(OC(F)(F)F)c1 (centres undefined),"inconclusive: 50.1 µM [inhibitor, partial curve, poor fit]"
8,COc1cc(CN2CC[C@H](c3nc4ccccc4o3)C2)cc(OC)c1OC,"inconclusive: 112 µM [inhibitor, partial curve, poor fit]"
9,O=C(CCC1CCN(C(=O)c2ccccc2)CC1)NCCCN1CCCc2ccccc21,"inconclusive: 50.1 µM [inhibitor, partial curve, poor fit]"
10,CN1C(=O)C2(CCN(C(=O)CC3CCCC3)CC2)c2ccccc21,inactive
11,COCCNC(=O)c1nc(-c2ccc(Cl)cc2)c2ccccn12,active: 79.4 µM
12,COCCN1C(=O)[C@H]2CN(Cc3cccc(OC(F)(F)F)c3)C[C@H]2C1=O,inactive
13,Cc1cnc(CC2CCCN(C(=O)Cc3cccc(F)c3)C2)n1C(C)C (centres undefined),inactive
14,CN(c1ccccc1)c1ccc2ncn(C3CC3)c(=O)c2n1,"inconclusive: 100 µM [inhibitor, partial curve]"
15,CC(=O)N1CCC2(CC1)CN(C(=O)c1ccc(N)nc1)Cc1ccccc1O2,inactive
16,CC(C)Cn1c(=O)c(C(=O)N2CCN(C(=O)c3ccc(F)cc3)CC2)nc2cccnc21,inactive
17,COc1ccc(-c2ccc3ncc(Nc4ccc5c(c4)OCCO5)n3n2)cc1OC,"inconclusive: 39.8 µM [inhibitor, full curve]"
18,O=C(c1c(OCC2CC2)cc(=O)n2c1CCCCC2)N1CCc2ccccc2C1,"inconclusive: 50.1 µM [inhibitor, partial curve, poor fit]"
19,COc1ccc(-c2ccccc2C(=O)N2CCC(NC(=O)c3ccc(C(F)(F)F)cc3)CC2)nn1,"inconclusive: 79.4 µM [inhibitor, single point]"
